Experimental data from PubChem BioAssay AID743279 (National Center for Advancing Translational Sciences (NCATS), 2014).
Hit rate of the full screen: of about 360,000 compounds, about 17,000 (4.7%) were called active. The shares of active, inactive and inconclusive entries below differ from those in the screen. No stated cut-off is given here; in the data, active means activity change below about -50%; inconclusive means mostly about -30% to -49%; inactive means weaker than that.

assay: qHTS for Inhibitors of Inflammasome Signaling: IL-1-beta AlphaLISA Primary Screen; conditions: THP-1 LPS/ATP IL-1B secretion, 16 h; at 57.5 µM, active compounds read low
Outline: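 Secreted IL-1B measured by AlphaLISA bead assay after 16 h compound exposure of THP-1 cells; compounds (final up to 57.5 uM) added 1 h before LPS (250 ng/mL) and ATP (1.25 mM) stimulation; lower signal means less secretion.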
On the % scale 0 is the no-effect control and ±100 the full control effect.

Activity change, active:
O=C(Nc1ccc(CN2CCOCC2)cc1)c1ccc(-c2cccc(Cl)c2)o1 -59.9%, COc1ccc(/C=C\C(=O)c2c(O)ccc3c(C)cc(=O)oc23)cc1OC -69.8%, O=C(CCC(=O)N1CCN(S(=O)(=O)c2ccc(Cl)cc2)CC1)NCc1cccc(C(F)(F)F)c1 -52.1%, O=C(Nc1nc(-c2ccc(Cl)s2)cs1)c1cccs1 -83.6%, O=C1CCCC2=C1C(c1cccc(Br)c1)n1nc(-c3ccco3)nc1N2 (stereo not given) -94%, CC(C)c1ccc(NC(=O)c2cccc(Br)c2)cc1 -52.2%, CCc1nn2cc(C(=O)c3cc(Cl)ccc3O)cnc2c1-c1ccc(F)cc1 -76.7%, CCn1nnc(NC(=O)c2ccc([N+](=O)[O-])o2)n1 -77.9%

Activity change, inconclusive:
O=C(/C=C/c1ccccc1[N+](=O)[O-])c1ccc(F)cc1 -46%, CCCC(=O)N(CCN1CCOCC1)c1nc2c(OC)ccc(OC)c2s1 -30.8%, Nc1ccccc1-c1nnn(CC(=O)Nc2ccc3c(c2)OCCO3)n1 -37%, COc1ccc(C2c3c(-c4cc(Cl)c(C)cc4O)n[nH]c3C(=O)N2Cc2cccnc2)cc1OC (stereo not given) -43.7%, Clc1ccccc1-c1cc2nc(NCc3ccco3)ccn2n1 -35.4%, CCn1c(=N)n(CC(=O)c2ccc(OC)cc2)c2ccccc21 -44.4%, O=C(Nc1ccc(Cl)cc1)c1nc[nH]c1C(=O)NCCCCNC(=O)c1[nH]cnc1C(=O)Nc1ccc(Cl)cc1 -41.5%, O=C(Nc1c(C(=O)N2CCC(N3CCCCC3)CC2)oc2ccccc12)c1ccc(F)cc1 -38.7%, CCOC(=O)c1c(S(=O)(=O)NCCc2ccco2)c(C)n(C)c1C -32.8%, CCCC(C(=O)Nc1ccc(S(=O)(=O)N2CCOCC2)cc1)c1ccccc1 (stereo not given) -48.8%, CN(CC(=O)NCc1ccncc1)S(=O)(=O)c1ccc(F)cc1 -44.1%, c1cncc(Nc2nc(-c3ccncc3)cs2)c1 -35.9%, Cc1c(C(=O)N(C)CCC#N)oc2ccc(S(=O)(=O)N3CC(C)CC(C)C3)cc12 (stereo not given) -45.7%, CCC(=O)Nc1nc(=S)ss1 -33%, CCc1c(C(=O)Nc2ccc(C)c(C)c2)[nH]c(C)c1C(C)=O -30.5%, CC1=CC(=O)C2=C(C)CC[C@@H]3[C@H](OC(=O)[C@H]3C)[C@@H]12 -45.4%, O=C(c1cccs1)N1C[C@H](O)[C@@H](n2cc(-c3ccc(F)cc3)nn2)C[C@@H]1c1ccccc1 -31.3%, CCN(CC)C(=O)C1=C(C)N(Cc2ccc(C(C)(C)C)cc2)C(=O)C(CC(=O)NCc2cccs2)C1 (stereo not given) -31.4%, Cc1ccc(SCc2nc(N)nc(Nc3ccccc3C)n2)c(C)c1 -33.7%, COc1cccc(C(C(=O)NCc2ccccc2)N2CCN(c3cccc(C)c3C)CC2)c1OC (stereo not given) -40.2%, O=C(/C=C/c1c(F)cccc1Cl)c1ccc(O)cc1 -44.8%, FC(F)Oc1ccc(NC(=S)Nc2ccc3cn[nH]c3c2)cc1 -47.4%, O=C1c2ccccc2-c2onc3c(N4CCN(CCO)CC4)cc(N4CCN(C(=O)c5ccco5)CC4)c1c23 -46.6%, COc1cccc(OC)c1-c1nn2c(-c3ccccc3Cl)nnc2s1 -33.6%, O=C(Nc1ccc(Oc2ccccc2)nc1)C1CCN(Cc2ccccc2)CC1 -39.2%, O=C(CN1C(=O)CSc2ccc(S(=O)(=O)N3CCCCC3)cc21)NCc1cccnc1 -33.8%, COc1ccc(CNC(=O)C2CCCN2CCc2ccccc2)cc1OC (stereo not given) -47%, COc1ccc(N(C(=O)c2cc3ccccc3oc2=O)C2C=CS(=O)(=O)C2)cc1 (stereo not given) -47.9%, Cc1nc(NCC(c2ccccc2)N(C)C)c2c(C)c(C)sc2n1 (stereo not given) -34.8%, COc1ccc(OC)c(/C=C/C(=O)N2CCN(S(=O)(=O)c3cc(C)ccc3C)CC2)c1 -41.9%, CCOc1ccc(OC(=O)C(CCS(C)(=O)=O)N2C(=O)c3ccccc3C2=O)cc1 (stereo not given) -30.7%, CCc1nc(Nc2ccc3c(c2)OCO3)c2oc3ccccc3c2n1 -33%, CC(C)(C)N(CC#CCC(O)(c1ccccc1)C1CCCC1)CCO (stereo not given) -46.2%, Cc1cccnc1C(NC(=O)C1CCN(Cc2ccc(Cl)cc2)CC1)c1ccccc1 (stereo not given) -45.9%, COc1cc(C(C)=O)ccc1OCC(O)CNCC(O)c1ccccc1 (stereo not given) -34.2%, Fc1ccc(NC(=S)NC2CC3CCCC(C2)N3Cc2cccs2)cc1 (stereo not given) -44.9%, COC(=O)C1=C(COc2ccccc2)NC(=O)NC1c1ccc(Br)cc1 (stereo not given) -38.9%, CCCCNC(=O)C(CC)(ONc1ccccc1C(F)(F)F)c1ccccc1OC (stereo not given) -45.8%, Cc1c(C(=O)NCc2ccc(Cl)c(Cl)c2)sc(=O)n1Cc1ccc(S(C)(=O)=O)cc1 -48.9%, CCOC(=O)c1cc2occc2n1CCCN1C(=O)c2ccccc2C1=O -43.1%, Cc1ccc(NC(=O)c2ccc(F)c(S(=O)(=O)N3CCOCC3)c2)cc1F -39.8%, Cn1cnnc1Sc1ccc(S(C)(=O)=O)cc1[N+](=O)[O-] -34.7%, O=c1cc(-c2ccc([N+](=O)[O-])cc2)c2cc3c(cc2[nH]1)OCCO3 -32.1%, COc1cc(/C=C/c2ccc3cccc(O)c3n2)ccc1O -39.3%, O=C(C1CCCCN1S(=O)(=O)c1ccccc1[N+](=O)[O-])N1CCCC1 (stereo not given) -34.1%, CC(OC(=O)c1ccc(Cl)cc1O)C(=O)NCCC1=CCCCC1 (stereo not given) -43.9%, O=C(Nc1cccnc1)c1cc2nc(C3CC3)cc(C(F)(F)F)n2n1 -30.5%, CC1CCc2sc(C(=O)NCc3ccc(F)cc3)cc2C1 (stereo not given) -35.8%

Activity change, inactive:
CC[C@@]1(C(=O)OC)N[C@H](CN(C)C(=O)COc2ccccc2)[C@@H]2C(=O)N(Cc3ccccc3)C(=O)[C@@H]21 2.21%, CCOC(=O)c1ccc(-c2cc(C)no2)[nH]1 27.3%, O=C(CSc1ccc(Cl)cc1)NC1CC1 3.85%, CCOC(=O)CNC(c1ccccc1)c1cc(Br)ccc1NC(=O)OCC (stereo not given) -4.5%, Cc1cccc(NC(=O)c2ccc(CN3CCN(Cc4ccccc4)CC3)cc2)c1 59.6%, CC(=O)Oc1ccc(N(C(C)=O)S(=O)(=O)c2cccs2)c2ccccc12 154%, COc1cccc(CC(=O)OCC(=O)c2cc(OC)c(OC)c(OC)c2)c1 8.05%, Cc1nc(NC(=O)CSc2nnc(Cn3nnc4ccccc43)n2C)sc1C -5.86%, CCc1nc2ccc(C(=O)N3CCN(S(=O)(=O)CC)CC3)cn2c1N(CC)C(=O)NCCc1ccccc1 11.6%, CCSC1(SCC)N=C(N)C2(C#N)C(c3ccccc3)NC3=C(CCC3)C12C#N (stereo not given) -16.8%, CCOc1ccc(CCNC(=O)CN2C(=O)c3cccnc3Oc3ccc(C)cc32)cc1OCC 12.3%, O=C(Cc1ccccc1)NCCN1CCCC1 -0.135%, CC(=O)c1ccc(N2CCN(S(=O)(=O)c3csc(C(N)=O)c3)CC2)cc1 29.7%, Cc1ccc2[nH]c(O)c(N=NC(=O)C(C)n3cnc4ccccc4c3=O)c2c1 (stereo not given) -2.05%, Cn1c(=O)c2c(nc(CN3CCN(Cc4ccccc4)CC3)n2Cc2ccc(F)cc2)n(C)c1=O 16.4%, CCOc1ccc(N2C(=O)CC(Sc3nc(C)cc(C)n3)C2=O)cc1 (stereo not given) 35.7%, CCCc1c(C(=O)NNc2cc(C(F)(F)F)ccc2Cl)cnn1-c1ccccc1 -6.43%, Cc1ccc(N(Cc2ccc(C(=O)NCC3CCCO3)cc2)S(C)(=O)=O)cc1C (stereo not given) -0.496%, CCN1C[C@@H]2[C@@H]3C(=O)N(Cc4ccccc4)C(=O)[C@@H]3[C@](C)(C1=O)N2C(=O)c1ccc(C(C)(C)C)cc1 0%, O=C(c1cc(C2CC2)nn1-c1ccccc1)N1CCN(S(=O)(=O)c2ccc(F)cc2)CC1 4.13%, O=C(c1cccnc1)N1N=C2CCCCCC2C1(O)C(F)(F)F (stereo not given) -8.61%, CCOC(=O)c1cc(C(=O)OCC)c2cccc(C)n2c1=O -4.32%, COc1ccc2oc(C(=O)OC(C)C(=O)N3CCC(C)CC3)c(C)c2c1 (stereo not given) -2.93%, O=C(CN(CC1CCCO1)C(=O)CNS(=O)(=O)c1ccc(Cl)cc1)NCc1ccc(F)cc1 (stereo not given) 1.58%, Cc1ccccc1Nc1nc(N)nc(COC(=O)CC2CC3CCC2C3)n1 (stereo not given) 0.205%, COc1ccc(C(NC(C)=O)c2nccc3cc(OC)c(OC)cc23)cc1OC (stereo not given) 0%, CC(OC(=O)c1cccs1)C(=O)NC1CC1 (stereo not given) 34.9%, Cc1cc(-c2ccccc2)c2ccc(NC(=O)C(C)(C)C)nc2n1 -12.8%, O=C(O)c1ccccc1Nc1cccc(C(F)(F)F)c1 24.4%
